Results: the supplement of paper PMC4967469
By IC50 is meant the dose at which the fit gives 50% viability; a fit beyond the top or the lowest dose is shown as a bound at that dose. AUC sums up the same curve from the lowest dose to the 256-fold higher top dose; values near 1 show little effect. The top dose, if marked as inferred, is not printed in the source and was worked back from the curve model.

Key:
Assay in all cases: Viability of human cancer cell lines after 72 h of drug (GDSC screen)
QL-XII-47 = compound: C=CC(=O)N1CCc2ccc(-n3c(=O)ccc4cnc5ccc(-c6cnn(C)c6)cc5c43)cc21 [QL-XII-47]; details: top dose 10.24 µM; top dose inferred
Experimental: (§1)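 Human cancer cell lines in 384-well plates, medium with 10% serum, drug for 72 h over a 256-fold dose range (nine 2-fold or five 4-fold steps up to the top dose). Adherent lines were fixed and stained with the nucleic acid dye Syto60, suspension lines read with resazurin; signal relative to control wells, capped at 0 and 100%. One two-parameter sigmoid per drug and line, fitted in a mixed model over all curves with the slope shared within a line.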

KIN001-266 = compound: CCN1CCC(n2cc(CNc3cc(Cl)c4ncc(C#N)c(Nc5ccc(F)c(Cl)c5)c4c3)nn2)CC1 [KIN001-266]; details: top dose 20 µM; top dose inferred
Experimental: as §1

BAY 61-3606 = compound: COc1ccc(-c2cc3nccn3c(Nc3ncccc3C(N)=O)n2)cc1OC [BAY 61-3606]; details: top dose 8 µM; top dose inferred
Experimental: as §1

CCT007093 = compound: O=C1/C(=C/c2cccs2)CC/C1=C\c1cccs1 [CCT007093]; details: top dose 6.6 µM; top dose inferred
Experimental: as §1

Cell Line | AUC (QL-XII-47) | IC50 (QL-XII-47) | AUC (KIN001-266) | IC50 (KIN001-266) | AUC (BAY 61-3606) | IC50 (BAY 61-3606) | AUC (CCT007093) | IC50 (CCT007093)
TOV-112D (ovary, adherent) | 0.496 | 0.623 µM | 0.898 | > 20 µM | 0.674 | 1.53 µM | 0.971 | > 6.6 µM
TT2609-C02 (thyroid, adherent) | 0.602 | 1.24 µM | 0.892 | > 20 µM | 0.595 | 0.929 µM | 0.971 | > 6.6 µM
TT (thyroid, adherent) | 0.982 | > 10.2 µM | 0.965 | > 20 µM | 0.949 | > 8 µM | 0.983 | > 6.6 µM
TUR (B-cell lymphoma, suspension) | 0.79 | 4.18 µM | 0.866 | 15.6 µM | 0.779 | 3 µM | 0.971 | > 6.6 µM
TYK-nu (ovary, adherent) | 0.796 | 5.16 µM | 0.86 | 18.8 µM | 0.916 | > 8 µM | 0.984 | > 6.6 µM
U031 (kidney, adherent) | 0.584 | 1.1 µM | 0.872 | > 20 µM | 0.824 | 5 µM | 0.96 | > 6.6 µM
U251 (glioma, adherent) | 0.383 | 0.31 µM | 0.835 | 12.3 µM | 0.945 | > 8 µM | 0.983 | > 6.6 µM
U-2-OS (osteosarcoma, adherent) | 0.973 | > 10.2 µM | 0.985 | > 20 µM | 0.985 | > 8 µM | 0.98 | > 6.6 µM
U-87-MG (glioma, adherent) | 0.714 | 2.89 µM | 0.868 | > 20 µM | 0.931 | > 8 µM | 0.961 | > 6.6 µM
U-118-MG (glioma, adherent) | 0.985 | > 10.2 µM | 0.955 | > 20 µM | 0.854 | 7.96 µM | 0.962 | > 6.6 µM
U-698-M (B-cell leukaemia, suspension) | 0.827 | 6.28 µM | 0.64 | 3.04 µM | 0.626 | 1.11 µM | 0.987 | > 6.6 µM
UACC-62 (melanoma, adherent) | 0.898 | > 10.2 µM | 0.983 | > 20 µM | 0.983 | > 8 µM | 0.985 | > 6.6 µM
UACC-257 (melanoma, adherent) | 0.735 | 3.59 µM | 0.705 | 5.49 µM | 0.982 | > 8 µM | 0.911 | > 6.6 µM
UACC-893 (breast, adherent) | 0.614 | 1.46 µM | 0.863 | > 20 µM | 0.977 | > 8 µM | 0.934 | > 6.6 µM
UM-UC-3 (bladder, adherent) | 0.588 | 1.1 µM | 0.877 | 17.9 µM | 0.876 | 7.1 µM | 0.972 | > 6.6 µM
UMC-11 (lung carcinoid, adherent) | 0.884 | 9.04 µM | 0.875 | 16.1 µM | 0.895 | 7.92 µM | 0.988 | > 6.6 µM

Cell Line | AUC (QL-XII-47) | IC50 (QL-XII-47) | AUC (KIN001-266) | IC50 (KIN001-266) | AUC (BAY 61-3606) | IC50 (BAY 61-3606) | AUC (CCT007093) | IC50 (CCT007093)
VA-ES-BJ (soft tissue, adherent) | 0.705 | 2.5 µM | 0.871 | > 20 µM | 0.877 | > 8 µM | 0.98 | > 6.6 µM
VAL (B-cell lymphoma, suspension) | 0.662 | 1.81 µM | 0.726 | 5.52 µM | 0.707 | 1.93 µM | 0.985 | > 6.6 µM
VCaP (prostate, adherent) | 0.349 | 0.239 µM | 0.899 | > 20 µM | 0.933 | > 8 µM | 0.987 | > 6.6 µM
VM-CUB-1 (bladder, adherent) | 0.936 | > 10.2 µM | 0.865 | 16.7 µM | 0.954 | > 8 µM | 0.989 | > 6.6 µM
VMRC-MELG (melanoma, adherent) | 0.972 | > 10.2 µM | 0.828 | 13.1 µM | 0.899 | > 8 µM | 0.989 | > 6.6 µM
VMRC-RCZ (kidney, adherent) | 0.393 | 0.31 µM | 0.893 | > 20 µM | 0.811 | 5.13 µM | 0.911 | > 6.6 µM
WIL2-NS (lymphoid neoplasm, suspension) | 0.311 | 0.213 µM | 0.898 | 16.8 µM | 0.546 | 0.653 µM | 0.989 | > 6.6 µM
WM35 (melanoma, adherent) | 0.525 | 0.749 µM | 0.722 | 5.35 µM | 0.839 | 5.5 µM | 0.967 | > 6.6 µM
WM278 (melanoma, adherent) | 0.763 | 4.14 µM | 0.82 | 13.4 µM | 0.809 | 4.85 µM | 0.965 | > 6.6 µM
WM793B (melanoma, adherent) | 0.984 | > 10.2 µM | 0.866 | > 20 µM | 0.663 | 1.5 µM | 0.983 | > 6.6 µM
WM1552C (melanoma, adherent) | 0.773 | 4 µM | 0.987 | > 20 µM | 0.886 | > 8 µM | 0.987 | > 6.6 µM
WM-115 (melanoma, adherent) | 0.448 | 0.445 µM | 0.858 | > 20 µM | 0.98 | > 8 µM | 0.982 | > 6.6 µM
WSU-DLCL2 (B-cell lymphoma, suspension) | 0.826 | 4.83 µM | 0.887 | 15.8 µM | 0.993 | > 8 µM | 0.973 | > 6.6 µM
WSU-NHL (lymphoid neoplasm, suspension) | 0.851 | 6.43 µM | 0.884 | 17.1 µM | 0.679 | 1.47 µM | 0.985 | > 6.6 µM
YAPC (pancreas, adherent) | 0.905 | > 10.2 µM | 0.893 | > 20 µM | 0.977 | > 8 µM | 0.974 | > 6.6 µM
YKG-1 (glioma, adherent) | 0.389 | 0.315 µM | 0.872 | 19.5 µM | 0.498 | 0.493 µM | 0.969 | > 6.6 µM
